The supplement of paper PMC10369915
The list shows a part of the results. Cut-off read from the data, not from the text of the source: active = 3.2 or more and inactive = the rest. Most of these values are background signal.

molecular target: SHP2 C-SH2 domain E139D; assay: enrichment score (SH2-bound / input frequency) (ratio); bacterial display of known human phosphotyrosine sites (pTyr-Var adds point mutants) read by sequencing; higher = stronger binding; tyrosines were phosphorylated by kinases first; settings: peptide library: pTyr-Var
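Note: displayed peptides selected on beads carrying the immobilized SH2 domain, with library peptides lacking any tyrosine serving as negative controls.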

Row | Binder | enrichment score
1 | YDCKWYIPLTD [BCR_Y756] | inactive: 0.615
2 | QDTSRYTVSNL [BIRC3_Y245] | inactive: 0.531
3 | YQLPYYNTVPS [BMPR1A_Y458_M460T] | inactive: 1.46
4 | AFLLLYFNDTH [BMP15_Y235] | inactive: 2.54
5 | KRYRIYHLATS [BRCA2_Y3009] | inactive: 0.522
6 | RTLIRYANLGN [BEST1_Y131] | inactive: 0.814
7 | GKTQQYDCKWF [BCR_Y751_YF] | inactive: 1.07
8 | GHLFANDWISI [BEST1_Y227_Y227N_YF] | inactive: 0.998
9 | GIVEEYQLPFF [BMPR1A_Y453_YF] | inactive: 1.01
10 | NEKNIYRVPLM [BMPR2_Y247] | inactive: 0.852
11 | DTKPVYQNLRQ [BOD1_Y82_A81V] | inactive: 3.16
12 | LNERHYGALIG [BPGM_Y92] | inactive: 0.848
13 | KEEEDYKEENN [BMS1_Y651] | inactive: 0.395
14 | VHLYAYDWISI [BEST1_Y227_G222V] | active: 3.24
15 | GKTQQYDCKWY [BCR_Y751] | inactive: 0.974
16 | WRPFGYPHRRR [BCS1L_Y181_R183H] | inactive: 0.187
17 | SRIWVYNHYRW [BRCA2_Y2621] | active: 3.48
18 | KMATAYIRSMS [BCO1_Y264_R267S] | inactive: 0.836

molecular target: SHP2 C-SH2 domain wild-type; assay: as above; settings: peptide library: pTyr-Var

Row | Binder | enrichment score
19 | YDCKWYIPLTD [BCR_Y756] | inactive: 0.838
20 | QDTSRYTVSNL [BIRC3_Y245] | inactive: 0.749
21 | YQLPYYNTVPS [BMPR1A_Y458_M460T] | inactive: 1.43
22 | AFLLLYFNDTH [BMP15_Y235] | inactive: 2.3
23 | KRYRIYHLATS [BRCA2_Y3009] | inactive: 0.456
24 | RTLIRYANLGN [BEST1_Y131] | inactive: 1.23
25 | GKTQQYDCKWF [BCR_Y751_YF] | inactive: 1.03
26 | GHLFANDWISI [BEST1_Y227_Y227N_YF] | inactive: 0.909
27 | GIVEEYQLPFF [BMPR1A_Y453_YF] | inactive: 0.899
28 | NEKNIYRVPLM [BMPR2_Y247] | inactive: 0.785
29 | DTKPVYQNLRQ [BOD1_Y82_A81V] | inactive: 2.48
30 | LNERHYGALIG [BPGM_Y92] | inactive: 0.84
31 | KEEEDYKEENN [BMS1_Y651] | inactive: 0.281
32 | VHLYAYDWISI [BEST1_Y227_G222V] | active: 3.31
33 | GKTQQYDCKWY [BCR_Y751] | inactive: 0.818
34 | WRPFGYPHRRR [BCS1L_Y181_R183H] | inactive: 0.2
35 | SRIWVYNHYRW [BRCA2_Y2621] | inactive: 2.95
36 | KMATAYIRSMS [BCO1_Y264_R267S] | inactive: 0.717

molecular target: SHP2 N-SH2 domain L43F; assay: as above; settings: peptide library: pTyr-Var

Row | Binder | enrichment score
37 | YDCKWYIPLTD [BCR_Y756] | inactive: 0.685
38 | QDTSRYTVSNL [BIRC3_Y245] | inactive: 0.637
39 | YQLPYYNTVPS [BMPR1A_Y458_M460T] | inactive: 1.75
40 | AFLLLYFNDTH [BMP15_Y235] | inactive: 1.91
41 | KRYRIYHLATS [BRCA2_Y3009] | inactive: 0.558
42 | RTLIRYANLGN [BEST1_Y131] | inactive: 1.66
43 | GKTQQYDCKWF [BCR_Y751_YF] | inactive: 0.822
44 | GHLFANDWISI [BEST1_Y227_Y227N_YF] | inactive: 0.983
45 | GIVEEYQLPFF [BMPR1A_Y453_YF] | inactive: 0.993
46 | NEKNIYRVPLM [BMPR2_Y247] | inactive: 0.812
47 | DTKPVYQNLRQ [BOD1_Y82_A81V] | inactive: 2.87
48 | LNERHYGALIG [BPGM_Y92] | inactive: 0.928
49 | KEEEDYKEENN [BMS1_Y651] | inactive: 0.412
50 | VHLYAYDWISI [BEST1_Y227_G222V] | inactive: 3.06
51 | GKTQQYDCKWY [BCR_Y751] | inactive: 0.819
52 | WRPFGYPHRRR [BCS1L_Y181_R183H] | inactive: 0.209
53 | SRIWVYNHYRW [BRCA2_Y2621] | inactive: 2.85
54 | KMATAYIRSMS [BCO1_Y264_R267S] | inactive: 0.767

molecular target: SHP2 N-SH2 domain T42A; assay: as above; settings: peptide library: pTyr-Var

Row | Binder | enrichment score
55 | YDCKWYIPLTD [BCR_Y756] | inactive: 0.607
56 | QDTSRYTVSNL [BIRC3_Y245] | inactive: 0.673
57 | YQLPYYNTVPS [BMPR1A_Y458_M460T] | inactive: 2.37
58 | AFLLLYFNDTH [BMP15_Y235] | inactive: 1.77
59 | KRYRIYHLATS [BRCA2_Y3009] | inactive: 0.352
60 | RTLIRYANLGN [BEST1_Y131] | active: 4.01
61 | GKTQQYDCKWF [BCR_Y751_YF] | inactive: 0.817
62 | GHLFANDWISI [BEST1_Y227_Y227N_YF] | inactive: 1.14
63 | GIVEEYQLPFF [BMPR1A_Y453_YF] | inactive: 0.817
64 | NEKNIYRVPLM [BMPR2_Y247] | inactive: 0.737
65 | DTKPVYQNLRQ [BOD1_Y82_A81V] | inactive: 3.12
66 | LNERHYGALIG [BPGM_Y92] | inactive: 0.713
67 | KEEEDYKEENN [BMS1_Y651] | inactive: 0.427
68 | VHLYAYDWISI [BEST1_Y227_G222V] | inactive: 2.96
69 | GKTQQYDCKWY [BCR_Y751] | inactive: 0.659
70 | WRPFGYPHRRR [BCS1L_Y181_R183H] | inactive: 0.338
71 | SRIWVYNHYRW [BRCA2_Y2621] | inactive: 2.53
72 | KMATAYIRSMS [BCO1_Y264_R267S] | inactive: 0.643

molecular target: SHP2 N-SH2 domain T52S; assay: as above; settings: peptide library: pTyr-Var

Row | Binder | enrichment score
73 | YDCKWYIPLTD [BCR_Y756] | inactive: 0.704
74 | QDTSRYTVSNL [BIRC3_Y245] | inactive: 0.598
75 | YQLPYYNTVPS [BMPR1A_Y458_M460T] | inactive: 1.6
76 | AFLLLYFNDTH [BMP15_Y235] | inactive: 2.17
77 | KRYRIYHLATS [BRCA2_Y3009] | inactive: 0.776
78 | RTLIRYANLGN [BEST1_Y131] | inactive: 1.81
79 | GKTQQYDCKWF [BCR_Y751_YF] | inactive: 0.84
80 | GHLFANDWISI [BEST1_Y227_Y227N_YF] | inactive: 1.03
81 | GIVEEYQLPFF [BMPR1A_Y453_YF] | inactive: 0.724
82 | NEKNIYRVPLM [BMPR2_Y247] | inactive: 0.794
83 | DTKPVYQNLRQ [BOD1_Y82_A81V] | active: 3.33
84 | LNERHYGALIG [BPGM_Y92] | inactive: 0.651
85 | KEEEDYKEENN [BMS1_Y651] | inactive: 0.328
86 | VHLYAYDWISI [BEST1_Y227_G222V] | inactive: 3.03
87 | GKTQQYDCKWY [BCR_Y751] | inactive: 0.659
88 | WRPFGYPHRRR [BCS1L_Y181_R183H] | inactive: 0.268
89 | SRIWVYNHYRW [BRCA2_Y2621] | active: 3.31
90 | KMATAYIRSMS [BCO1_Y264_R267S] | inactive: 0.731

molecular target: SHP2 N-SH2 domain wild-type; assay: as above; settings: peptide library: pTyr-Var

Row | Binder | enrichment score
91 | YDCKWYIPLTD [BCR_Y756] | inactive: 0.839
92 | QDTSRYTVSNL [BIRC3_Y245] | inactive: 0.831
93 | YQLPYYNTVPS [BMPR1A_Y458_M460T] | inactive: 1.19
94 | AFLLLYFNDTH [BMP15_Y235] | inactive: 2.31
95 | KRYRIYHLATS [BRCA2_Y3009] | inactive: 0.547
96 | RTLIRYANLGN [BEST1_Y131] | inactive: 1.23
97 | GKTQQYDCKWF [BCR_Y751_YF] | inactive: 1.2
98 | GHLFANDWISI [BEST1_Y227_Y227N_YF] | inactive: 0.933
99 | GIVEEYQLPFF [BMPR1A_Y453_YF] | inactive: 0.874
100 | NEKNIYRVPLM [BMPR2_Y247] | inactive: 0.991
101 | DTKPVYQNLRQ [BOD1_Y82_A81V] | inactive: 2.37
102 | LNERHYGALIG [BPGM_Y92] | inactive: 0.77
103 | KEEEDYKEENN [BMS1_Y651] | inactive: 0.36
104 | VHLYAYDWISI [BEST1_Y227_G222V] | inactive: 3.1
105 | GKTQQYDCKWY [BCR_Y751] | inactive: 1.17
106 | WRPFGYPHRRR [BCS1L_Y181_R183H] | inactive: 0.302
107 | SRIWVYNHYRW [BRCA2_Y2621] | inactive: 2.64
108 | KMATAYIRSMS [BCO1_Y264_R267S] | inactive: 0.669
